Data taken from the supplement of paper PMC11283458.
Where a name gives a salt, the structure may show the parent alone. This is one part of the list. Single values are uncertain, as repeats are few or missing.

Assays:
[1] = system: Mef2d microexon dual Nano/Firefly luciferase splicing reporter in Neuro-2a cells; test: B-score of Firefly/Nano luminescence ratio, V1 Mef2d microexon reporter (B-score (plate-normalised)); higher = more Mef2d microexon inclusion; conditions: 24 h
[2] = system: Mef2d microexon dual Nano/Firefly luciferase splicing reporter in Neuro-2a cells; test: B-score of Nano/Firefly luminescence ratio, V2 Mef2d microexon reporter (B-score (plate-normalised)); higher = more Mef2d microexon inclusion; conditions: 24 h
[3] = system: Asph alternative exon (endogenous); test: delta PSI of alternative exon relative to 0.4% DMSO control (RT-PCR) (percentage points); higher = more exon inclusion; conditions: concentration: not stated (optimised per compound); Neuro-2a
Procedure: (§1)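 Reads PSI of the Mef2d reporter microexon and of endogenous mouse neural alternative exons. dPSI is relative to the 0.4% DMSO control, single replicate.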

[4] = system: Trappc9 microexon (endogenous); test: as above; conditions: concentration: not stated (optimised per compound); Neuro-2a
Procedure: as §1

[5] = system: Ergic3 microexon (endogenous); test: as above; conditions: concentration: not stated (optimised per compound); Neuro-2a
Procedure: as §1

[6] = system: Mgrn1 alternative exon (endogenous); test: as above; conditions: concentration: not stated (optimised per compound); Neuro-2a
Procedure: as §1
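Wherever B-score of Nano/Firefly luminescence ratio, V2 Mef2d microexon reporter is given: compounds at 4 µM (PKI library 0.5 µM) on Dox-inducible N2A Flp-In cells with PEST-tagged luciferases, 384-well plates, B-score from per-plate median-polish residual over median absolute residual.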
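Wherever delta PSI of alternative exon relative to 0.4% DMSO control (RT-PCR) is given: exons read include endogenous Mef2d, Mast2, Ergic3 and Trappc9 microexons plus the longer neural-regulated Zdhhc20, Mgrn1 and Asph cassette exons, alongside the reporter microexon.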

What does the source list for `CNC(=O)ON=C(N)Cc1csc2ccc(Cl)cc12` (4 µM)?
B-score [1]: 13.5; B-score [2]: 2.82

Which B-score [1] does the source give for `CN1C[C@@H](NS(=O)(=O)N(C)C)C[C@@H]2c3cccc4[nH]cc(c34)C[C@H]21` [Compound 71] (0.5 µM) here?
Its B-score is -5.67.

And the B-score [2]?
The B-score was -10.

How did the B-score [1] turn out when `CCn1cnc2c(Nc3cccc(Cl)c3)nc(N[C@@H]3CCCC[C@@H]3N)nc21` (4 µM) was run?
The B-score was 10.7.

And the B-score [2]?
The B-score was 3.51.

For `C[C@@H]1C[C@@H]([C@H](O)CC2CC(=O)NC(=O)C2)C(=O)[C@@H](C)C1` [Cycloheximide] (4 µM), which B-score [1] is on record?
Its B-score is -7.34.

What about the B-score [2] of the same compound?
The B-score was -8.4.

For `CN1C(=O)C(=CNc2ccc(Cl)cc2)C(=O)N(C)C1=O` (4 µM), which B-score [1] is on record?
Its B-score is 4.81.

What about the B-score [2] of the same compound?
The B-score was 1.31.

How did the B-score [1] turn out when `COc1cc2c(c(OC)c1OC)-c1ccc(OC)c(=O)cc1[C@@H](NC(C)=O)CC2` [Colchicine] (4 µM) was run?
The B-score was -4.32.

And the B-score [2]?
The B-score was -9.14.

Which B-score [1] does the source give for `C=C(C)[C@H]1Cc2c(ccc3c2O[C@@H]2COc4cc(OC)c(OC)cc4[C@@H]2C3=O)O1` [Rotenone] (4 µM) here?
Its B-score is -9.22.

And the B-score [2]?
The B-score was -17.1.

How did the B-score [1] turn out when `CCOc1c(I)cc(I)cc1C=C(C#N)C#N` (4 µM) was run?
Its B-score is -1.69.

What about the B-score [2] of the same compound?
Its B-score is -5.03.

What does the source list for `O=[N+]([O-])c1ccc(N2CCc3ccccc3C2)c2ccncc12` (4 µM)?
B-score [1]: -0.923; B-score [2]: -5.43

What does the source list for `O=C1C=C2C=C[C@@H]3C[C@@]2(O1)[C@H]1CCCCN31` [Securinine] (4 µM)?
B-score [1]: -3.71; B-score [2]: -5.84

Which results are given for `N#CC(C#N)=Cc1ccc(Cl)c([N+](=O)[O-])c1` (4 µM)?
B-score [1]: -0.981; B-score [2]: -6.27

How did the B-score [1] turn out when `O=C1NC(=O)C(=CC=Cc2ccccc2)C(=O)N1` (4 µM) was run?
The B-score was -4.22.

And the B-score [2]?
Its B-score is -3.51.

With `CC[C@H]1CN2CCc3cc(OC)c(OC)cc3[C@@H]2C[C@@H]1C[C@H]1NCCc2cc(OC)c(OC)cc21` [Emetine dihydrochloride hydrate] (4 µM) as the compound, how does the B-score [1] read?
Its B-score is -2.77.

What about the B-score [2] of the same compound?
The B-score was -7.95.

With `O=C1NC(=O)C(=CC=Cc2ccccc2)C(=O)N1` as the compound, how does the “delta PSI of alternative exon” value [3] read?
The value was -0.692.

And the “delta PSI of alternative exon” value [4]?
Its value is 0.958.

Which results are given for `COc1ccc(C=C[N+](=O)[O-])cc1OC` (4 µM)?
B-score [1]: 5.06; B-score [2]: 8.54

With `Cc1ccc2c(c1)Cc1c(C(=O)NN3CCCCC3)nn(-c3ccc(Cl)cc3Cl)c1-2` (4 µM) as the compound, how does the B-score [1] read?
Its B-score is 4.44.

And the B-score [2]?
The B-score was 5.96.

Which B-score [1] does the source give for `COc1cc(CN2CCN(c3cccc(Cl)c3)CC2)ccc1O` (4 µM) here?
Its B-score is 2.8.

And the B-score [2]?
The B-score was 5.3.

What does the source list for `Cc1c(Cc2ccc(F)cc2)c(=O)oc2cc(OC(=O)N(C)C)ccc12` (4 µM)?
B-score [1]: 2.59; B-score [2]: 4.49

Which results are given for `C[C@@H]1CC[C@H]2[C@@H](C)C(=O)O[C@@H]3O[C@@]4(C)CC[C@@H]1[C@]32OO4` [Artemisinin] (4 µM)?
B-score [1]: 6.07; B-score [2]: 5.49

What does the source list for `CC1(C)C(Br)=C(Br)C(=O)C1(Br)Br` (4 µM)?
B-score [1]: 0.028; B-score [2]: -7.76

For `COc1ccc(/C=C/C=C2C(=O)NC(=O)NC2=O)cc1`, which “delta PSI of alternative exon” value [3] is on record?
Its value is 0.164.

What about the “delta PSI of alternative exon” value [4] of the same compound?
The value was -2.7.

Which results are given for `CNC(=O)ON=C(N)Cc1csc2ccccc12` (4 µM)?
B-score [1]: 6.41; B-score [2]: 2.51

With `CC(=O)OC(C)(C)C=CC(=O)[C@](C)(O)[C@H]1[C@H](O)C[C@@]2(C)[C@@H]3CC=C4[C@@H](CC[C@H](O)C4(C)C)[C@]3(CO)C(=O)C[C@]12C` as the compound, how does the “delta PSI of alternative exon” value [5] read?
Its value is 3.16.

What about the “delta PSI of alternative exon” value [6] of the same compound?
Its value is 7.74.

Which results are given for `COc1ccc2c(c1)[nH]c1c(C)nccc12` [Harmine hydrochloride] (4 µM)?
B-score [1]: 3.37; B-score [2]: 5.6

For `Cc1[nH]nc2ccc(-c3cncc(OC[C@@H](N)Cc4c[nH]c5ccccc45)c3)cc12` (0.5 µM), which B-score [1] is on record?
Its B-score is 9.86.

What about the B-score [2] of the same compound?
The B-score was 6.21.

Which results are given for `COc1ccc(/C=C/C=C2C(=O)NC(=O)NC2=O)cc1` (4 µM)?
B-score [1]: -1.45; B-score [2]: -6.64

Which results are given for `CC(=O)OC(C)(C)C=CC(=O)[C@](C)(O)[C@H]1[C@H](O)C[C@@]2(C)[C@@H]3CC=C4[C@@H](CC[C@H](O)C4(C)C)[C@]3(CO)C(=O)C[C@]12C` (4 µM)?
B-score [1]: 33.7; B-score [2]: 6.14

`C[N+]1(C)[C@@H]2CC[C@H]1C[C@@H](OC(=O)C(CO)c1ccccc1)C2` (some centres not stated) [Atropine methyl bromide] (4 µM) was tested. Which B-score [1] did it give?
Its B-score is -8.27.

What about the B-score [2] of the same compound?
Its B-score is -5.87.

Which B-score [1] does the source give for `CCOc1cc(CN2CCN(c3cccc(Cl)c3)CC2)ccc1O` (4 µM) here?
The B-score was 1.94.

What about the B-score [2] of the same compound?
Its B-score is 4.95.

Which results are given for `Cc1n[nH]c2ccc(-c3cncc(OC[C@@H](N)Cc4c[nH]c5ccccc45)c3)cc12`?
delta PSI of alternative exon [5]: 15.6; delta PSI of alternative exon [6]: 4.46

What does the source list for `CC(=O)C1=C(O)[C@@H]2[C@H]3c4c[nH]c5cccc(c45)C[C@H]3C(C)(C)N2C1=O` [Cyclopiazonic Acid] (4 µM)?
B-score [1]: 10.5; B-score [2]: 4.78
